{"source": "PubChem BioAssay (Tox21)", "key": {"[1]": {"assay": "qHTS RealTime-Glo MT Cell Viability Assay in HepG2 cells - 40 hour (AID 1224870); also: potency is read from the fitted curve at half-maximal effect; nearly all actives have a fitted effect of over 50% in size", "in_short": "(§1)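 HepG2 cells (600/well) mixed with RealTime-Glo MT reagent, settled 5 h at 37 C/5% CO2 before compound addition. Nonlytic NanoLuc luminescence from viable-cell prosubstrate reduction read repeatedly during 40 h treatment at 37 C.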"}, "[2]": {"assay": "qHTS RealTime-Glo MT Cell Viability Assay in HepG2 cells - 8 hour (AID 1224873)", "in_short": "as §1"}, "[3]": {"assay": "qHTS RealTime-Glo MT Cell Viability Assay in HepG2 cells - 32 hour (AID 1224877)", "in_short": "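Cells + NanoLuc/prosubstrate dispensed (600 cells/well) → 5 h at 37 C/5% CO2 → compounds in DMSO transferred → 40 h incubation at 37 C, luminescence read at 0, 8, 16, 24, 32, 40 h.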"}, "[4]": {"assay": "qHTS RealTime-Glo MT Cell Viability Assay in HEK293 cells - 40 hour (AID 1224874)", "conditions": "RealTime-Glo luminescence; max response: active compounds read low", "in_short": "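HEK293 + NanoLuc + prosubstrate, 600 cells/well; 5 h, 37 C/5% CO2; compound 23 nL in DMSO by pintool; 37 C; luminescence read at 0, 8, 16, 24, 32 and 40 h time points.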"}, "[5]": {"assay": "A CellTox Green Cytotoxicity Assay to monitor cytotoxicity in HepG2 cells - 40 hour (AID 1224879)", "in_short": "(§2)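 Measurements at 0, 8, 16, 24, 32 and 40 h of treatment captured CellTox Green fluorescence in HepG2 cells that had been co-plated with reagent and preincubated 5 h at 37 C/5% CO2.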"}, "[6]": {"assay": "A CellTox Green Cytotoxicity Assay to monitor cytotoxicity in HEK293 cells - 40 hour (AID 1224871)", "in_short": "(§3)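 Tox21 screen in HEK293: membrane-impermeant cyanine dye fluoresces on binding dead-cell DNA; compound pinned 5 h post-seeding, plates held at 37 C, signal read repeatedly through 40 h.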"}, "[7]": {"assay": "qHTS RealTime-Glo MT Cell Viability Assay in HEK293 cells - 16 hour (AID 1224872)", "in_short": "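Tox21 10K qHTS, HEK293, 600 cells/well, RealTime-Glo reagent co-dispensed with cells; 5 h preincubation, compound by pintool, 37 C, luminescence at 0–40 h.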"}, "[8]": {"assay": "A CellTox Green Cytotoxicity Assay to monitor cytotoxicity in HepG2 cells - 16 hour (AID 1224876)", "in_short": "as §2"}, "[9]": {"assay": "A CellTox Green Cytotoxicity Assay to monitor cytotoxicity in HEK293 cells - 24 hour (AID 1224875)", "in_short": "as §3"}, "[10]": {"assay": "A CellTox Green Cytotoxicity Assay to monitor cytotoxicity in HepG2 cells - 24 hour (AID 1224878)", "in_short": "as §2"}}, "note": "Values joined by “and” are separate entries in the source; they are usually repeats but may differ in a detail not shown here. Equal values may be shown once. This list was built around the results that the source calls inconclusive (neither active nor inactive); the mix of calls is not that of the screen. For some assays here: Where the call is inconclusive, the potency comes from a doubtful curve fit. Active and inactive are the calls of the source. Calls follow the shape of the dose curve; as a rule, active = well fitted curve in the direction sought with a large enough effect in the repeat runs; inconclusive = weak or mixed curves; inactive = no such curve, though single readings can be large; an effect the other way counts as inactive or inconclusive. Tags tell the direction and shape of the fitted curve.", "data": [{"smiles": "O=C(O)c1cccc(N(Cc2cccnc2)c2ccc(OC(F)F)c(OC(F)F)c2)c1", "values": [{"measurement": "Potency", "setting": "[1]", "value": "inconclusive: 12.3 µM [falling, partial curve]"}, {"measurement": "Potency", "setting": "[2]", "value": "inconclusive: 19.5 µM [falling, partial curve, poor fit]"}, {"measurement": "Potency", "setting": "[3]", "value": "inconclusive: 19.5 µM [cytotoxic, partial curve]"}]}, {"smiles": "CCOc1ccc(Cc2nccc3cc(OCC)c(OCC)cc23)cc1OCC", "values": [{"measurement": "Potency", "setting": "[1]", "value": "inconclusive: 21.3 µM [falling, partial curve]"}, {"measurement": "Potency", "setting": "[2]", "value": "active: 12 µM"}, {"measurement": "Potency", "setting": "[4]", "value": "active: 5.35 µM"}, {"measurement": "Potency", "setting": "[3]", "value": "inconclusive: 19 µM [cytotoxic, partial curve]"}, {"measurement": "Potency", "setting": "[5]", "value": "active: 7.56 µM"}]}, {"smiles": "CC(C)[N+](C)(C)CC(O)COc1cccc2ccccc12", "note": "(configuration not stated)", "values": [{"measurement": "Potency", "setting": "[1]", "value": "inconclusive: 26.8 µM [falling, single point]"}, {"measurement": "Potency", "setting": "[6]", "value": "inactive"}, {"measurement": "Potency", "setting": "[3]", "value": "inconclusive: 26.8 µM [cytotoxic, single point]"}]}, {"smiles": "CCC(C)n1ncn(-c2ccc(N3CCN(c4ccc(OC[C@H]5CO[C@](Cn6cncn6)(c6ccc(Cl)cc6Cl)O5)cc4)CC3)cc2)c1=O", "note": "(some centres not stated)", "values": [{"measurement": "Potency", "setting": "[1]", "value": "inconclusive: 7.56 µM [falling, partial curve]"}, {"measurement": "Potency", "setting": "[7]", "value": "inconclusive: 6.74 µM [cytotoxic, partial curve]"}, {"measurement": "Potency", "setting": "[4]", "value": "inconclusive: 8.49 µM [cytotoxic, partial curve]"}, {"measurement": "Potency", "setting": "[8]", "value": "inactive"}, {"measurement": "Potency", "setting": "[3]", "value": "inconclusive: 9.52 µM [cytotoxic, partial curve]"}]}, {"smiles": "CO[C@H]1C=CO[C@@]2(C)Oc3c(C)c(O)c4c(O)c(c(/C=N/N5CCN(C)CC5)c(O)c4c3C2=O)NC(=O)/C(C)=C\\C=C[C@H](C)[C@H](O)[C@@H](C)[C@@H](O)[C@@H](C)[C@H](OC(C)=O)[C@@H]1C", "values": [{"measurement": "Potency", "setting": "[1]", "value": "inconclusive: 62 µM [falling, partial curve, poor fit]"}, {"measurement": "Potency", "setting": "[7]", "value": "active: 6.96 µM and active: 2.21 µM"}, {"measurement": "Potency", "setting": "[4]", "value": "inconclusive: 23.9 µM [cytotoxic, partial curve]"}, {"measurement": "Potency", "setting": "[3]", "value": "inconclusive: 49.3 µM [cytotoxic, single point]"}]}, {"smiles": "CC[C@@]1(O)C(=O)OCc2c1cc1n(c2=O)Cc2cc3c(CN(C)C)c(O)ccc3nc2-1", "values": [{"measurement": "Potency", "setting": "[1]", "value": "active: 5.35 µM"}, {"measurement": "Potency", "setting": "[7]", "value": "inconclusive: 0.213 µM [cytotoxic, full curve]"}, {"measurement": "Potency", "setting": "[9]", "value": "active: 23.9 µM"}, {"measurement": "Potency", "setting": "[8]", "value": "active: 21.3 µM"}, {"measurement": "Potency", "setting": "[3]", "value": "inconclusive: 4.25 µM [cytotoxic, full curve]"}, {"measurement": "Potency", "setting": "[10]", "value": "active: 10.7 µM"}]}, {"smiles": "COC(=O)c1nc(Cl)c(Cl)nc1N", "values": [{"measurement": "Potency", "setting": "[1]", "value": "active: 12 µM"}, {"measurement": "Potency", "setting": "[7]", "value": "active: 12 µM"}, {"measurement": "Potency", "setting": "[2]", "value": "inconclusive: 19 µM [falling, partial curve]"}, {"measurement": "Potency", "setting": "[9]", "value": "inconclusive: 23.9 µM [activator, single point]"}, {"measurement": "Potency", "setting": "[8]", "value": "inconclusive: 10.7 µM [activator, single point]"}, {"measurement": "Potency", "setting": "[3]", "value": "active: 10.7 µM"}, {"measurement": "Potency", "setting": "[10]", "value": "inconclusive: 10.7 µM [activator, single point]"}, {"measurement": "Potency", "setting": "[5]", "value": "inconclusive: 23.9 µM [activator, partial curve, poor fit]"}]}, {"smiles": "COc1cc2nc(N3CCN(C(=O)c4ccco4)CC3)nc(N)c2cc1OC", "values": [{"measurement": "Potency", "setting": "[1]", "value": "inconclusive: 13.1 µM [falling, single point]"}, {"measurement": "Potency", "setting": "[3]", "value": "inconclusive: 13.1 µM [cytotoxic, partial curve, poor fit]"}]}, {"smiles": "CC(=O)Oc1ccccc1C(=O)Nc1ncc([N+](=O)[O-])s1", "values": [{"measurement": "Potency", "setting": "[1]", "value": "inconclusive: 19 µM [falling, partial curve, poor fit]"}, {"measurement": "Potency", "setting": "[7]", "value": "inconclusive: 19.9 µM [cytotoxic, full curve] and inconclusive: 26.8 µM [cytotoxic, single point]"}, {"measurement": "Potency", "setting": "[4]", "value": "inconclusive: 15.8 µM [cytotoxic, full curve] and inconclusive: 26.8 µM [cytotoxic, single point]"}, {"measurement": "Potency", "setting": "[5]", "value": "inconclusive: 26.8 µM [activator, single point]"}]}, {"smiles": "Cc1ccc2oc(CN(Cc3ccccc3)C(=O)Nc3c(F)cc(F)cc3F)c(-c3ccc(Cl)cc3)c2c1", "values": [{"measurement": "Potency", "setting": "[1]", "value": "inconclusive: 21.2 µM [falling, partial curve]"}, {"measurement": "Potency", "setting": "[2]", "value": "inconclusive: 18.9 µM [falling, partial curve]"}, {"measurement": "Potency", "setting": "[3]", "value": "inconclusive: 18.9 µM [cytotoxic, partial curve]"}]}, {"smiles": "Oc1ccc(CCNCCCCCCNCCc2ccccc2)cc1O", "values": [{"measurement": "Potency", "setting": "[1]", "value": "inconclusive: 26.8 µM [falling, partial curve, poor fit]"}, {"measurement": "Potency", "setting": "[4]", "value": "active: 23.9 µM"}, {"measurement": "Potency", "setting": "[3]", "value": "inconclusive: 26.8 µM [cytotoxic, partial curve, poor fit]"}, {"measurement": "Potency", "setting": "[5]", "value": "inconclusive: 26.8 µM [activator, single point]"}]}]}
